Like-named read-outs stand apart in the source and are kept apart here.

Drawing on patent publication US20210324028A1 (Pfizer, published 2021), this text covers Kd for one molecule.

Common to all, as to assay: SPR, steady state
On the technique in general: Surface plasmon resonance follows binding to a sensor surface in real time, without labels.

Experiment [1] deals with T1, human IL-15Rα (human, UniProt Q13261 31-205, limits assumed).
T1 construct: also called hIL-15Rα; IL-15 receptor alpha

In experiment [2] the target is T2, human IL-2Rβ (human, UniProt P14784 27-240, limits assumed).
T2 construct: also called hIL-2Rβ; IL-2 receptor beta
T2 sequence (looked up): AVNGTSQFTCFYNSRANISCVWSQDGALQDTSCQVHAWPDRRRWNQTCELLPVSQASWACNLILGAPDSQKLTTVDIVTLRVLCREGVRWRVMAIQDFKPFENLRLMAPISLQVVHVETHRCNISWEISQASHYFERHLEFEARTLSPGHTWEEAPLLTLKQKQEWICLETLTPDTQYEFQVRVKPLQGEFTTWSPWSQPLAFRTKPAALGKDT

Experiment [3] addresses T1, human IL-15Rα. The source holds these as a separate data set.
The target in experiment [4] is T2, human IL-2Rβ. The source holds these as a separate data set.

T1 sequence (Q13261 31-205 limits assumed): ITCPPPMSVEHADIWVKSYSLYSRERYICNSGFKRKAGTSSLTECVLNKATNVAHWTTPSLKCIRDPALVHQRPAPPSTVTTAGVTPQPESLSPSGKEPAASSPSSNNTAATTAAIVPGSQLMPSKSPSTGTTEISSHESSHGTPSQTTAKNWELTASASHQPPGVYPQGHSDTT

B1: hIL-15 V49R-GS-linker-8xHis-Avi tags (ligand)
chain: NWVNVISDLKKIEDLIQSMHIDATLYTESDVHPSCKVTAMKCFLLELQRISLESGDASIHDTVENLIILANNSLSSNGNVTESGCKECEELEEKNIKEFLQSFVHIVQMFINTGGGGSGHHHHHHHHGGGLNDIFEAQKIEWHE
As usually defined, the Kd is the free concentration of one partner at which half of the binding sites on the other are occupied at equilibrium, for simple one-to-one binding. B1: the Kd with human IL-15Rα [1] stood at 91.9 nM; in the experiment with human IL-2Rβ [2], 109 nM; in the experiment with human IL-15Rα [3], 94.2 nM; with human IL-2Rβ [4], 97.5 nM.
